Measured values taken from PubChem BioAssay AID1466 (National Center for Advancing Translational Sciences (NCATS), 2008).
Among all 200,000 compounds or so, about 10 (0.005%) were called active. The inconclusive results got no clear call from the source; some entries with a clear call stand among them for comparison. Calls follow the shape of the dose curve; as a rule, active = well fitted inhibition curve with a large enough effect; inconclusive = small, poorly fitted or top-dose-only effect, or effect the other way, or another doubt; inactive = no such curve, though single readings can be large or run the other way. A potency beside an inconclusive call is a rough fit, not a confirmed value.

Biological target: Lysosomal alpha-glucosidase (Homo sapiens) (UniProt P10253)
Experiment: qHTS Assay for Inhibitors of Human alpha-Glucosidase as a Potential Chaperone Treatment of Pompe Disease;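 as to activity change, negative = inhibition: plate controls were uninhibited enzyme wells for no effect and no-enzyme background for full effect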
Conditions: purified human GAA, 4-MU-alpha-glucoside fluorescence; activity change, negative = inhibition: at 76.9 µM (top of the series) unless noted
In short: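 Activity normalized between no-enzyme (basal) and enzyme-only wells. Conditions: 4 nM human enzyme, 400 uM fluorogenic substrate, citrate/phosphate pH 5.0 with Tween-20, 20 min room temperature, compounds up to 77 uM.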
Potency is read from the fitted curve at half-maximal effect; tags tell the direction and shape of the fitted curve.

Potency, inconclusive:
CN(C(=O)c1ccco1)c1nc(CC(=O)Nc2ccccc2)cs1 39.8 µM [inhibitor, single point], Cc1cc(C)nc(SCCC(=O)Nc2ccccc2C)n1 0.501 µM [activator, full curve], Cc1ccc(C(=O)COC(=O)CCN2C(=O)C3C4CC(C(Br)C4Br)C3C2=O)cc1 (centres undefined) 0.251 µM [inhibitor, full curve], Cc1ccc(C)c(N2CCN(C(=O)c3ccc(CS(=O)(=O)c4ccccc4C)o3)CC2)c1 25.1 µM [inhibitor, partial curve, poor fit], CCOc1ccc(C(=O)NCCC2=CCCCC2)cc1OCC 0.891 µM [inhibitor, full curve, poor fit], Cc1cccn2c(=O)c3cc(C#N)c(=NC(=O)c4ccncc4)n(CCCOC(C)C)c3nc12 35.5 µM [activator, partial curve], COc1cc(C=Nc2cccc([N+](=O)[O-])c2C)ccc1OC(C)=O 3.16 µM [inhibitor, partial curve, poor fit], O=C(O)c1ccc(S(=O)(=O)N2CCC(c3nc(-c4ccccc4Cl)no3)CC2)cc1 6.31 µM [inhibitor, partial curve, poor fit], N#Cc1ccccc1NC(=O)C1CC(=O)N(c2ccc3c4c(cccc24)CC3)C1 (centres undefined) 11.2 µM [inhibitor, partial curve, poor fit], Cc1csc2ncc(C(=O)Nc3ccon3)c(=O)n12 35.5 µM [activator, partial curve], Cc1ccc(C(=O)N/N=C2\CCSC2)cc1[N+](=O)[O-] 39.8 µM [inhibitor, partial curve, poor fit], Cc1ccc(CS/C(Nc2ccccc2C)=C(\C#N)C(=O)NCc2ccco2)c(C)c1 50.1 µM [inhibitor, single point], CCOC(=O)N1CCN(C(=O)c2cc3c(ccc4ccccc43)oc2=O)CC1 31.6 µM [activator, partial curve], CCn1c(CN2CCN(c3cccc(C)c3C)CC2)n[nH]c1=S 11.2 µM [inhibitor, single point], OC(CNCc1ccc(Cl)cc1)C(F)(F)F (centres undefined) 50.1 µM [inhibitor, single point], CC(=O)c1cccc(NC(=O)c2nc(-c3ccccc3)oc2C)c1 50.1 µM [inhibitor, partial curve, poor fit], CCOC(=O)c1sc2nc(NC(=O)C(C)(C)C)sc2c1C 35.5 µM [activator, single point], Cc1ccc(C)n1-c1ccc(N2CCOCC2)nc1 1.78 µM [inhibitor, full curve, poor fit], CCOc1ccccc1NC(=O)C1CCN(S(=O)(=O)c2cccc3cccnc23)CC1 28.2 µM [inhibitor, partial curve, poor fit], Cc1cccn2c(=O)c3cc(C(=O)NCCCn4ccnc4)n(C)c3nc12 35.5 µM [activator, partial curve], O=C(Nc1nc(-c2ccccn2)cs1)c1ncc(Cl)c(Cl)c1Cl 31.6 µM [inhibitor, partial curve, poor fit]

Activity change, negative = inhibition, inactive:
CCOC(=O)c1ccc(NNC(C)=O)c([N+](=O)[O-])c1 9.25%, CCCCC(=O)N/N=C/c1ccc(Sc2cccc3cccnc23)o1 -4.78%, CCOc1ccc(Nc2nc(Cc3nnc(SCC(=O)NCC4CCCO4)n3C)cs2)cc1 (centres undefined) -2.94%, CCn1c(C)nc2cc(C#N)ccc21 6.01%, c1ccc(-c2nc3ccccn3c2NC2CCCC2)nc1 -0.916%, O=C(Nc1ccc2c(c1)OCO2)[C@@H]1[C@@H]2C(=O)N(C3CCCCC3)C(=O)[C@@H]2C2c3ccccc3C=CN21 (some centres undefined) 2.9%, Cc1nnsc1C(=O)NNS(=O)(=O)c1ccccc1 0.661%, N#CC1(Cc2ccccc2Cl)c2ccccc2C=CN1C(=O)c1ccccc1 (centres undefined) -14.7%

Activity change, negative = inhibition, inconclusive:
Cc1ccc2c(c1)N(CCC(=O)NCCN1CCOCC1)C(=O)CO2 7.53% [activator], O=C(CN1CCCC1)N1CCCc2ccccc21 8.12% [activator], Cc1onc(-c2ccccc2Cl)c1C(=O)NC(=S)NCC(=O)c1ccccc1 13.5% [activator], COc1ccc(-c2nc3ccc(N4CCN(C)CC4)cc3c(=O)[nH]2)cc1 16.9% [activator], CCN(CC)S(=O)(=O)c1ccc(N2CCOCC2)c(NC(=O)c2cccc3ccccc23)c1 -18.3% [inhibitor], CN(C)c1ccc(C(CNS(=O)(=O)c2ccc(F)c(F)c2)c2c[nH]c3ccccc23)cc1 (centres undefined) -15.6% [inhibitor], COc1ccc(-n2c3nc4ccccc4nc3c3c(=N)oc(C)nc32)cc1 15.7% [activator], CSC(=NNC(=O)c1ccccc1O)SC 15.8% [activator], CN(CCc1ccccc1)Cc1nc(-c2cnccn2)no1 16.8% [activator], CC(C)(C)NC(=O)C(c1ccncc1)N(C(=O)Cn1nnc(-c2ccc(F)cc2)n1)c1cccc(F)c1 (centres undefined) 16.7% [activator], COc1ccc(OC)c(NC(=O)c2ccc(Cl)cc2)c1 17.5% [activator], Cc1cc(F)ccc1S(=O)(=O)N(C(=O)c1ccncc1)c1ccc(OC(=O)c2ccncc2)cc1 18.6% [activator], CCOC(=O)C1(Cc2cccc(Cl)c2)CCCN(CCO)C1 (centres undefined) 19.3% [activator], Oc1ccc(Cl)cc1CNn1cnnc1 11.3% [activator], COc1ccc2[nH]c3c(=O)n4c(nc3c2c1)SCCC4 20% [activator]
